The experiment deals with T1, human ALK epitope peptide (amino acids 391-406 of the ALK protein) (human).
T1 construct: the underscore is a remnant of the underlining; In the yeast screen it was fused to LexA; in the ELISA it is called the Alk LBD peptide; also called Alk LBD peptide; AIk LBD
T1 peptide: GRIGRPDNPFRVALEY
Kind of experiment: ELISA with Alk LBD peptide.

B1: scFv ESBA521 (scFv)
scFv: QSVLTQPPSVSAAPGQKVTISCSGSTSNIGDNYVSWYQQLPGTAPQLLIYDNTKRPSGIPDRFSGSKSGTSATLGITGLQTGDEADYYCATWDNDKWGVVFGGGTKLEVLGGGGGSGGGGSGGGGSSGGGS[about 100 residues not spelt out]DAWLDVLSDGFDYWGQGTLVTVSS
notes: also called ESBA512; scFv-107
As to B1, the Kd (usually a measure of binding affinity in units of concentration) is approximately 7 nM.

For the origin of these results see patent WO2008131575A2 (dated 2008).
